# Measurements as given in PubChem BioAssay AID463173 (ICCB-Longwood Screening Facility, Harvard Medical School, 2010).
# Screen size: about 52,000 compounds; about 1,700 (3.3%) were called active. Cut-off read from the data, not from the text of the source: active = survival mostly below about 52% (no sharp cut-off); inactive = mostly above about 56%. The list shows a part of the results.
# System: Wild type
# Assay: growth inhibition of S. aureus wild type versus tarO mutant, primary screen, teichoic acid synthesis inhibitors, RN4220, OD600 (AID 463173)
# Details: S. aureus RN4220 wild type/DeltatarO growth, OD600, 18 h, hits give low values, screened at 18.75 µg/mL (by protocol)
row,SMILES,survival
1,CCOc1cc(C2C(C(=O)OC)=C(C)NC3=C2C(=O)c2ccccc23)cc(Br)c1OCC (centres undefined),inactive: 62%
2,COc1ccc(N2CC(C(=O)N/N=C/c3ccccc3)CC2=O)cc1 (centres undefined),inactive: 109%
3,COc1ccc(CNC(=O)CS(=O)(=O)c2cccc3nsnc23)cc1,inactive: 124%
4,Cc1cc(C)c(NC(=O)Cc2ccc(-n3c(C)nc4cccnc43)cc2)c(C)c1,inactive: 74%
5,Cn1nnc2cc(NC(=O)NC3CCCCC3)ccc21,inactive: 102%
6,CC1=C(C(=O)OC2CCCCCC2)C(c2ccc(Cl)cc2)CC(=O)N1 (centres undefined),inactive: 88%
7,COc1ccc(Cl)cc1C(=O)NCc1nc(-c2cccc(C)c2)no1,inactive: 87%
8,O=C(c1ccc([N+](=O)[O-])cc1)N1c2ncnn2C2(CCCCC2)[C@@H]2CCCC[C@@H]21,inactive: 83%
9,Cc1ccc(OC(=O)CSc2nnc(-c3cccs3)o2)c(C)c1,inactive: 80%
10,CC(=O)Nc1ccc(NC(=O)C2Cc3ccccc3N2C(=O)c2ccccc2)cc1 (centres undefined),inactive: 73%
11,COc1ccc(Cn2c(CCC(=O)Nc3ccccc3OC)nc3cccnc32)cc1,inactive: 158%
12,Cc1ccc2nc(-c3ccco3)c(Nc3ccc4c(c3)OCCO4)n2c1,inactive: 95%
13,N=c1oc2ccccc2cc1C(=O)Nc1ccccc1,inactive: 112%
14,COc1ccc(CNC(=O)c2ccc(-c3nc(CS(=O)c4ccc(C)cc4)c(C)o3)cc2)cc1 (centres undefined),inactive: 71%
15,COc1cccc2[nH]c(C(=O)NCc3ccc4c(c3)CCN4C(=O)c3ccc(F)cc3)cc12,inactive: 72%
16,CCc1c(C)nc2nc(-c3ccccc3)nn2c1NCc1ccc(C)cc1,active: -1%
17,NC(=O)/C=C/C(=O)Nc1ccc2c(c1)OCO2,inactive: 89%
18,O=C(CSc1cn(CCNC(=O)c2c(F)cccc2F)c2ccccc12)Nc1ccccc1F,inactive: 81%
19,Cc1oc2ccc(O)c(CN3CCCC(C)C3)c2c1C(=O)Nc1ccccc1 (centres undefined),inactive: 91%
20,CC(C)OCCCn1c(=O)c2ccccc2n2c(-c3ccccc3F)nnc12,inactive: 88%

row,SMILES,survival
1,COc1ccc2c(c1)c(=O)c(C(=O)c1ccc(Cl)cc1)cn2CC(=O)Nc1ccc2c(c1)OCCO2,inactive: 127%
2,Cc1ccc2nc(-c3c[nH]c4ccccc34)c(Nc3ccc(F)cc3)n2c1,inactive: 72%
3,Cc1ccc(CNC(=O)C(C)n2c(=O)cc(-c3ccccc3)c3c(C)nn(C)c32)cc1 (centres undefined),inactive: 71%
4,O=C(O)CC1CCCC(c2ccccc2)C1=O (centres undefined),inactive: 104%
5,Cc1oc(-c2ccccc2Cl)nc1CSc1nncn2c1cc1occc12,inactive: 80%
6,COc1ccc(Br)cc1CNC(=O)Cn1ncn2nc(-c3cccs3)cc2c1=O,inactive: 85%
7,Cc1ccc(-c2nnn3c2nc(NCc2ccc4c(c2)OCO4)c2ccccc23)cc1,inactive: 82%
8,COc1ccccc1N1CCN(C(=O)c2ccc3c(c2)CCN3S(=O)(=O)c2ccccc2)CC1,inactive: 95%
9,O=C(CCS(=O)(=O)c1cccc2nonc12)Nc1ccc(F)cc1F,inactive: 135%
10,COc1ccc2c(Sc3ccccc3)c(C(=O)NCc3cc(Br)ccc3OC)[nH]c2c1,inactive: 97%
11,CCCn1c(SCC(=O)c2ccc3c(c2)OCCO3)nnc1-c1ccco1,inactive: 100%
12,O=C(CC(c1cccs1)N1Cc2ccccc2C1=O)Nc1cccc(F)c1 (centres undefined),inactive: 87%
13,CCCn1ccc2c(OCC(=O)Nc3ccc(OC)c(OC)c3)cccc2c1=O,inactive: 69%
14,Cc1ccc(OCC(=O)Nc2nc(-c3ccc(Br)cc3)ns2)cc1,inactive: 79%
15,COc1ccccc1CNC(=O)c1ccc(CSc2nc3ccncc3n2Cc2cccc(F)c2)cc1,inactive: 86%
16,CC(=O)N1NC(=Nc2ccccc2)SC1(C)C,inactive: 121%
17,CCOc1ccccc1CNc1nc2nc(C)c(CC(=O)OC)c(=O)n2[nH]1,inactive: 91%
18,Cc1cccc(-c2nc(C)c(CCNC(=O)C(=O)Nc3ccc(C)c(C)c3)s2)c1,inactive: 79%
19,O=C(CSc1nc(=O)[nH]c2c1CCC2)NCc1ccc(F)cc1,inactive: 71%
20,CC1CCN(C(=O)c2ccc(Br)cc2)CC1,inactive: 106%

row,SMILES,survival
1,CC(=O)Nc1ccc(C(=O)N2CCc3ccccc3C2)cc1,inactive: 109%
2,COc1ccc(Cl)cc1S(=O)(=O)N1CCN(C(=O)c2cc(-c3ccc(Br)cc3)n[nH]2)CC1,inactive: 60%
3,Cc1ccc(-n2ncc3c(N4CCN(Cc5ccccc5)CC4)ncnc32)cc1,inactive: 131%
4,Cc1cccc(C(=O)Nc2ccc(S(=O)(=O)N3CCCCC3c3cccnc3)cc2)c1 (centres undefined),inactive: 82%
5,COc1ccc(OC)c(NS(=O)(=O)c2ccc(Br)s2)c1,inactive: 60%
6,CCOc1ccc(NC(=O)c2oc3ccccc3c2NC(=O)Cc2cccc(C)c2)cc1,inactive: 81%
7,CCCCC(c1nnnn1C(C)C)N1CCN(c2ccc(F)cc2)CC1 (centres undefined),inactive: 101%
8,CN1CCN(CCC(=O)Nc2ccc(Cl)cc2)CC1,inactive: 63%
9,COc1ccc(C(=O)Oc2ccc(C(c3c(C)[nH][nH]c3=O)c3c(C)[nH][nH]c3=O)cc2OC)cc1,inactive: 73%
10,CC(C)c1ccc(NC(=O)CCNS(=O)(=O)c2cccc3nsnc23)cc1,inactive: 69%
11,Cc1cccc(NC(=O)CSc2nc(=O)n(Cc3cccnc3)c3c2CCC3)c1,inactive: 136%
12,COc1ccc(NC(=O)c2c(C)oc3ccc(O)c(CN4CCOCC4)c23)cc1,inactive: 87%
13,CCCN1C(C(=O)c2ccccc2)=C(OC(=O)c2ccc(C)cc2)c2ccccc2S1(=O)=O,inactive: 74%
14,Cc1ccc(NC(=O)Cn2c(=O)ccc3cc(S(=O)(=O)N4CCC(C)CC4)ccc32)cc1C,inactive: 73%
15,O=C(COc1ccc(Cl)cc1)NCCc1csc(-c2cccc(F)c2)n1,inactive: 125%
16,CCc1nnc(NC(=O)CC2CC3CCC2C3)s1 (centres undefined),inactive: 98%
17,COc1cc(NC(=O)c2ncn(-c3ccccc3)n2)cc(OC)c1,inactive: 71%
18,CC(=O)NC1C(OC2CCCCC2)OC(CO)C(O)C1O (centres undefined),inactive: 109%
19,CC(=O)c1ccc(NC(=O)CSc2nccn2Cc2ccc3c(c2)OCO3)cc1,inactive: 124%
